Source: paper PMC12136788
This is one part of the list.

B1: chr15:101302471:101305355:-|three_prime_utr|ENSG00000140479|control|control|control (ssRNA)
RNA: GGGAGUUCUACAGUCCGACGAUCACGGAAGCUCUUCAUUCAGUUCUGCUGCCGCACGUGCCUCCUGGCCGGGUAAGGGUGCCUAGCUGCCCACAGAGGGCAGGCACUCCCAUCCAUCCAUCCGUCCACCUUCCUCCAGACUGUCAACAGAGGAUUGAGCAUCA
B2: chr22:41636480:41636706:+|CDS|ENSG00000196419|unk|total|mutant (ssRNA)
RNA: GGGAGUUCUACAGUCCGACGAUCAUGGGCCACGGAUCUGACUACUCACUCAGUGAAGUGCUGUGGGUCUGUGCCAACCUCUUCCGUGAUGUCCAAUUCAAGAUGAGUCAUAAGAGGAUCAUGCUGUUCACCAAUGAAGACAACCAACAGAGGAUUGAGCAUCA
B3: chr14:69053859:69055611:-|CDS|ENSG00000139990|control|control|control (ssRNA)
RNA: GGGAGUUCUACAGUCCGACGAUCUGUGAGACCCCCAAUGCUGGAACAAGAGAGGACCCCACUGACACCCCAGCCACAGAUAGUAGCAGGGCUGUUCAUGGCCACAGUGGCCUCAAAAGGCAACGAAUUGAAUUGGAAGAUACACAACAGAGGAUUGAGCAUCA
B4: chr15:69271217:69271318:+|3pUTR|ENSG00000138604|msi1|total|mutant (ssRNA)
RNA: GGGAGUUCUACAGUCCGACGAUCGCAACAGCAAGUUGAUUUCUUGUGAUCCCAGAAUUUUCUAAGAGGAUGAGUUGAAUCUACCGCAGCAUUGUCAGUACAGACCAGUGGUUCUCAAACUUUAAAAUGCCUCAGCAUCACUUGCAACAGAGGAUUGAGCAUCA
B5: chr1:154584646:154584747:-|3pUTR|ENSG00000160710|unk|total|mutant (ssRNA)
RNA: GGGAGUUCUACAGUCCGACGAUCAUGCUCCAGUGACAGAUGGAUCCGGGUGUGUCAUACCCGGGUGUGAGAGAGGCCGGUCGCCGCAUUCCUCAUCACAUGGUCAGGGGAUUUUUUUUUCUCCUUUUUUUUUCUUUUUAAGCCCAACAGAGGAUUGAGCAUCA
B6: chr6:35869508:35869609:-|CDS|ENSG00000096063|unk|FALSE|unique (ssRNA)
RNA: GGGAGUUCUACAGUCCGACGAUCGACACCAUGGUGUGCCAGUCUUCCUCAACUGUAGGUCAGUCAUUCAGUGAACAACACAUUAGCCAACUUCAAGAAAGCAUUCGGGCAGAGAUACCCUGUGAAGAUGAACAAGAGCAAGAACAACAGAGGAUUGAGCAUCA
B7: chr1:184691659:184691688:-|3pUTR|ENSG00000116406|msi1_unk|total|mutant (ssRNA)
RNA: GGGAGUUCUACAGUCCGACGAUCCUCCAACGUUGUAAUUACAACUCUACAUUCAUUUACUUACUUGACAUACUGCCACAAAGCCGUUUUUGAGUUCAUUAAAAAUUCCAAAGGCAUCCGUUGUUUUUUUUUUUUUCCGUGUUUCAACAGAGGAUUGAGCAUCA
B8: chr7:66152395:66152486:+|3pUTR|ENSG00000241258|msi1_unk|FALSE|overlapping (ssRNA)
RNA: GGGAGUUCUACAGUCCGACGAUCCGUUGAGAGGAUUGUUUAUUUGAUUUUUAUCCUCAUCCCAGCAGGCCUGGCUUUGUGGUUAGUUGGGUACAUCACAAAAAUAAGUUAAAAAGAAAUAUUUGUGCCUUGGGGAGAAGAAACCAACAGAGGAUUGAGCAUCA
B9: chr17:51192749:51193016:-|CDS|ENSG00000011258|control|control|control (ssRNA)
RNA: GGGAGUUCUACAGUCCGACGAUCUGGAUGGGAAGAAGAGUAUGAUCAGUGGGUAGACUGUGAGUCACCUGACCUCUAUCCUGUAGGGUGGUGUCAGUUAACUGGAUAUCAACUACAGCCUCCAGCAUCACAGUGUAAGUUGGUCAACAGAGGAUUGAGCAUCA
B10: chr7:151349087:151349194:+|CDS|ENSG00000013374|unk|FALSE|unique (ssRNA)
RNA: GGGAGUUCUACAGUCCGACGAUCCCUUGCUAAGCAGUACUCUGACAGACUAGAAUGCUGUGAAAAUGAAGUAGAAAAGGUAAUAGAAGAAAUACGUUGCAAGGCAAUUGAGCGUGGAACAGGAAAUGACAAUUAUAGAACAACCAACAGAGGAUUGAGCAUCA
B11: chr1:42926584:42926685:-|3pUTR|ENSG00000117394|msi1|FALSE|unique (ssRNA)
RNA: GGGAGUUCUACAGUCCGACGAUCGCCUGAGGGUGGAGACUAAGCCCUGUCGAGACACUUGCCUUCUUCACCCAGCUAAUCUGUAGGGCUGGACCUAUGUCCUAAGGACACACUAAUCGAACUAUGAACUACAAAGCUUCUAUCCAACAGAGGAUUGAGCAUCA
B12: chr6:158785413:158785514:-|CDS|ENSG00000092820|msi1|FALSE|unique (ssRNA)
RNA: GGGAGUUCUACAGUCCGACGAUCGAGCUCAUCCAGGACAUCACCCAGAAACUUUUCUUCCUCCAAGUGAAGGAAGGAAUCCUUAGCGAUGAGAUCUACUGCCCCCCUGAGACUGCCGUGCUCUUGGGGUCCUACGCUGUGCAGCAACAGAGGAUUGAGCAUCA
B13: chr17:35009752:35009853:-|3pUTR|ENSG00000092871|msi1|FALSE|unique (ssRNA)
RNA: GGGAGUUCUACAGUCCGACGAUCAUUCAGCUACUCAGUUCCUCUGUAAAACAGGUCUAUGUAUGUGCAAUUCAGCUAAGAUCUAGCAGUAACUUAAGGGCAGAAGCUGGCUCUCUACUUACAACCUGCUUUCUCUGCUGAAGCCAACAGAGGAUUGAGCAUCA
B14: chr10:26980575:26980839:-|three_prime_utr|ENSG00000107890|control|control|control (ssRNA)
RNA: GGGAGUUCUACAGUCCGACGAUCGCUUACUCCGACCUCUCUGAACUUCCUGGACCAGAUCUGUUUCCUCUGCCUGCAUGCUCUAGCCUACCAUCUUCCUCUCCUUGUCUGCUACUCACUCAACAGAAGGCAACAGGGUGGUCUCAACAGAGGAUUGAGCAUCA
B15: chr2:176131361:176131462:+|CDS|ENSG00000175879|unk|FALSE|unique (ssRNA)
RNA: GGGAGUUCUACAGUCCGACGAUCGGAAUUUCUUUUUAACCCCUAUCUGACCAGGAAAAGAAGAAUCGAGGUUUCCCACGCCCUAGCCCUCACCGAGAGACAGGUAAAAAUCUGGUUCCAGAACAGGAGAAUGAAAUGGAAAAACAACAGAGGAUUGAGCAUCA
B16: chr3:120396629:120396730:-|3pUTR|ENSG00000163430|msi1|total|mutant (ssRNA)
RNA: GGGAGUUCUACAGUCCGACGAUCGCCUUCAUUUCCCGGAGUGCUUUAAGAGAAACUGUAAAUGGUGCUCUGGGGCUGGAGGCCCGUAAGGAAACUGCAUCACGAUUGAAAGAGGAACAGACCCAAAUCUGAACCUCUUUUGAGCAACAGAGGAUUGAGCAUCA
B17: chr8:23842656:23842757:-|3pUTR|ENSG00000159167|msi1|total|mutant (ssRNA)
RNA: GGGAGUUCUACAGUCCGACGAUCCCCCAAACUUAUGGACACUGCCUCCGCCUCUUGGAAAUCAGGCCGACCAUAUUCUAAGUCCGACUCUUCCCCUCCCUCCCACACUUCCCACCCCCAGGCAAGGCUGACUUCUCUGAAUCACAACAGAGGAUUGAGCAUCA
B18: chr10:63214216:63214317:-|CDS|ENSG00000171988|unk|total|mutant (ssRNA)
RNA: GGGAGUUCUACAGUCCGACGAUCUAAGCUGCAUAAGCGAAGUCCACCUCCAGAGACUAUAAAAUCUAAACUUAAUACUUCAGCCGAUACUCACAAGAUAAAAUCCAGCCCAUCACCUGAAGUUGUUAAACCCAAAAUAACUCACAACAGAGGAUUGAGCAUCA
B19: chr5:136975339:136975545:-|3pUTR|ENSG00000152377|msi1|total|mutant (ssRNA)
RNA: GGGAGUUCUACAGUCCGACGAUCAGAGCCCAUCAAAUCCUGAGUGUCAGUUUGUUGUCCCUAUUGCCGAUGAAACCGUGAUGCCGCAAAAACCCCGUAAAUUCUGAAUGCUUUUCCACGCCGACUUAUCUGGAAUGUGAACACCAACAGAGGAUUGAGCAUCA
B20: chr2:210678210:210678332:+|3pUTR|ENSG00000021826|unk|FALSE|unique (ssRNA)
RNA: GGGAGUUCUACAGUCCGACGAUCUUCAUCCAUUUACUAAUACUGUAUUUUUGGUGGACUAGGCUUGCCUAUGUGCUUAUGUGUAGCUUUUUACUUUUUAUGGUGCUGAUUAAUGGUGAUCAAGGUAGGAAAAGUUGCUGUUCUCAACAGAGGAUUGAGCAUCA
B21: chr9:72354534:72354635:-|3pUTR|ENSG00000107372|msi1|total|mutant (ssRNA)
RNA: GGGAGUUCUACAGUCCGACGAUCGUCCCCGUUUUUACUUUUAUUCUUAAAGCAUUCAGUUUUGCUUUCAAUUUUAUGUACCUCCGUUCUGAGUCCGACCUGCAGAUGUGUACAGACCGUUCAUAUUUAUGUAUUGCACAUAAUCAACAGAGGAUUGAGCAUCA
B22: chr15:63071210:63071313:+|3pUTR|ENSG00000140416|unk|FALSE|unique (ssRNA)
RNA: GGGAGUUCUACAGUCCGACGAUCCCUUAAAUGCAAUUUAUUUACUUUUACCACUGUCACAGAAACAUCCACAAGAUACCAGCUAGGUCAGGGGGUGGGGAAAACACAUACAAAAAGGCAAGCCCAUGUCAGGGCGAUCCUGGUCAACAGAGGAUUGAGCAUCA

The binders below were run against T1, UNK ZnF1-6 (called full-length) (human, UniProt Q9C0B0 30-357) (assay: nsRBNS (natural sequence RNA bind-n-seq); RBNS binding buffer (assumed for nsRBNS): 25 mM Tris pH 7.5, 150 mM KCl, 3 mM MgCl2, 0.01% Triton X-100, 500 ug/ml BSA, 20 U/ml SUPERase-In, 4 C; UNK is unkempt and MSI1 is Musashi-1; names of the RNAs are library labels; protein concentration not given here; high values mean tight binding).
T1 sequence: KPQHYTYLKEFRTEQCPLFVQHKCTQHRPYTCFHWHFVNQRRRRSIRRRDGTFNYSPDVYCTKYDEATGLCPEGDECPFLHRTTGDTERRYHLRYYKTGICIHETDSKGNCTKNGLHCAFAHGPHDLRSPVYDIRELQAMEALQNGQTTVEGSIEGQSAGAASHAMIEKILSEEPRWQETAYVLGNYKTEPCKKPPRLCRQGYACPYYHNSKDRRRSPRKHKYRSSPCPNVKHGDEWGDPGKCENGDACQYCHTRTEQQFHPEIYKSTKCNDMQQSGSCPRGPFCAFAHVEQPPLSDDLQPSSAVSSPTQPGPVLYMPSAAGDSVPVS
B1 gave a binding signal of 0.701 enrichment R.
With B2 the binding signal was 0.517 enrichment R.
With B3 the binding signal was 0.823 enrichment R.
B4 gave a binding signal of 0.375 enrichment R.
In the case of B5, the binding signal is reported as 1.34 enrichment R.
B6 was tested, and the binding signal was 0.535 enrichment R.
B7 was tested, and the binding signal was 0.805 enrichment R.
In the case of B8, the binding signal is reported as 0.835 enrichment R.
B9 was tested, and the binding signal was 0.594 enrichment R.
B10 gave a binding signal of 1.37 enrichment R.
Work on B11 yielded a binding signal of 0.589 enrichment R.
B12 gave a binding signal of 0.521 enrichment R.
Work on B13 yielded a binding signal of 0.495 enrichment R.
For B14, the binding signal was 0.798 enrichment R.
B15 showed a binding signal of 0.607 enrichment R.
B16 showed a binding signal of 0.319 enrichment R.
In the case of B17, the binding signal is reported as 1.07 enrichment R.
Binder B18 has a binding signal of 0.3 enrichment R.
B19 gave a binding signal of 0.528 enrichment R.
Binder B20 has a binding signal of 1.02 enrichment R.
In the case of B21, the binding signal is reported as 0.931 enrichment R.
Binder B22 has a binding signal of 1.79 enrichment R.
